First the molecules themselves.
T1: biotin-TACI (Acrobiosystems, TAI-H82F6) (human, UniProt O14836 2-166, limits assumed, biotin)
T1 construct: Bought protein; also called human TACI
T1 sequence (looked up): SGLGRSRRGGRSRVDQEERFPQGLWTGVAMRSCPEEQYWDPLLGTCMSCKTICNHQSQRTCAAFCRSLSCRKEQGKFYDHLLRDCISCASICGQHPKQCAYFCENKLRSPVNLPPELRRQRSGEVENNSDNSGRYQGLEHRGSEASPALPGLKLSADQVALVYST

T2: mouse BCMA his tag (Acrobiosystems, BCA-M52H3) (mouse, UniProt O88472 1-49)
T2 construct: Bought protein; also called murine BCMA; not shown: his tag
T2 chain (looked up): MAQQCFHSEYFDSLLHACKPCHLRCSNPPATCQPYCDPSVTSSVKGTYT

T3: biotin-BAFFR (Acrobiosystems, BAR-H5257) (human, UniProt Q96RJ3 7-71, limits assumed, biotin)
T3 construct: Bought protein; also called human BAFFR
T3 sequence (looked up): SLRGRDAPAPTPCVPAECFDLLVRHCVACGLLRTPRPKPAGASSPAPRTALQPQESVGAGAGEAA

B1: NB-122 (Fc fusion)
heavy: QVQLVESGGGLVQPGGSLRLSCAASGFTFSSSAMSWARQAPGMGLERVSSIYSDGSTYYPDSMKGRFTISRDNAKNTVYLQMNSLKPEDTAVYICAIGAPDPFDYSGWRRNLLGQGTQVTVSS[human IgG1 Fc with changes not written out]
notes: also called VHH-hIgG4
B2: NB-192 (Fc fusion)
heavy: QVQLVESGGGLVQPGGSLRLSCAASGFTFSSSAMSWARQAPGKGLERVSSIYSDGSTYYSDSMKGRFTISRDNAKNTVYLQMNSLKPEDTAVYYCAIGAPDPFDYSGWRRHLLGQGTLVTVSS[human IgG1 Fc with changes not written out]
notes: also called VHH-hIgG4
B3: NB-34 (Fc fusion)
heavy: EVQLVESGGGLVQPGGSLRLSCAASGSIFSIYAMGWYRQAPGKQRELVAAVTSEGGTFYRDSVKGRFTISRDNAKNTVYLQMNSLKPEDTAVYQCNAAPWGSYHPQSDIFSWGQGTQVTVSS[human IgG1 Fc with changes not written out]
notes: also called NB-34 antibody; VHH-hIgG4
B4: NB-82 (Fc fusion)
heavy: EVQLVESGGGLVQPGGSLRLSCAASGSIFSIYAMGWYRQAPGKPRELVAAVTTEGSTFYRDSVKGRFTISRDNAKNAVYLQMNSLKPEDTAVYQCNAAPWGSYHPQTDIVSWGQGTQVTVSS[human IgG1 Fc with changes not written out]
notes: also called NB-82 antibody; VHH-hIgG4
B5: NB-83 (Fc fusion)
heavy: QVQLVESGGGLVQPGGSLRLSCAASGSISSIYAMGWYRQAPGKQRELVAAITSDNSAFYRDSVKGRFTISRDNAKNTVYLQMDSLKVEDTAVYDCNVAPWGSYSPGPADIASWGQGTQVTVSS[human IgG1 Fc with changes not written out]
notes: also called NB-83 antibody; VHH-hIgG4
B6: NB-29 (Fc fusion)
heavy: EVQLVESGGGLVQPGESLRLSCAASGFTFSSSAMSWARQAPGKGLEWVSGIYSDGSTYYADSVKGRFTISRDNAKNTVYLQMNSLKPEDTAVYLCAVGAPLVYAAYRPWGQGTQVTVSS[human IgG1 Fc with changes not written out]
notes: also called NB-29 antibody; VHH-hIgG4
B7: NB-265 (Fc fusion)
heavy: EVQLVESGGGLVQPGESLRLSCAASGFTFSSSAMSWARQAPGKGLEWVSGIYSDGSTYYADSVKGRFTISRDNAKNTVYLQMNSLKPEDTAVYKCAVGAPLVYASYRPWGQGTLVTVSS[human IgG1 Fc with changes not written out]
notes: also called NB-265 antibody; VHH-hIgG4
B8: NB-170 (Fc fusion)
heavy: QVQLVESGGGLVQPGGSLRLSCAASEFIFSISAMSWYRQAPGKVLELVSDITTDGNSFYADSMKGRFTISRDNAKNTMYLQMNILKSEDTAAYDCDVAPWGYHAPEVGSWGQGTLVTVSS[human IgG1 Fc with changes not written out]
notes: also called NB-170 antibody; VHH-hIgG4

A value given as a limit tells only on which side of the number the result lay.

For one assay, the target named is T4, cynomolgus BCMA his tag (Acrobiosystems, BCA-C52H7) (cynomolgus, UniProt A0A2K5UD97 1-53).
T4 construct: Bought protein; also called Cyno BCMA his tag; not shown: his tag
Kind of assay: ELISA on coated cynomolgus BCMA his tag.
Consider B1, for which the binding result was “no binding (tested: 2 µg/mL)”.
As for B2, the binding result was “no binding (tested: 2 µg/mL)”.
Turning to B3, the binding result was “no binding (tested: 2 µg/mL)”.
B4: the binding result is on record as “no binding (tested: 2 µg/mL)”.
As for B5, the binding result is recorded as “no binding (tested: 2 µg/mL)”.
Consider B6, for which the binding result is given as “no binding (tested: 2 µg/mL)”.
In the case of B7, the binding result was “no binding (tested: 2 µg/mL)”.
Turning to B8, the binding result is on record as “no binding (tested: 2 µg/mL)”.

The next assay deals with T1, biotin-TACI (Acrobiosystems, TAI-H82F6). The assay can be described thus: ELISA, antibody coated, biotin-TACI in solution.
In the case of B1, the binding result is “no binding (tested: 4 µg/mL)”.
The same measure, in the same setting: the value for B2 was “no binding (tested: 4 µg/mL)”; that for B3 was “no binding (tested: 4 µg/mL)”; that for B4 was “no binding (tested: 4 µg/mL)”.
On to B5, for which the binding result is listed as “no binding (tested: 4 µg/mL)”.
Consider B6, for which the binding result is “no binding (tested: 4 µg/mL)”.
On to B7, for which the binding result is “no binding (tested: 4 µg/mL)”.
Turning to B8, the binding result is listed as “no binding (tested: 4 µg/mL)”.

The target of a further assay is T2, mouse BCMA his tag (Acrobiosystems, …). The assay can be described thus: ELISA on coated mouse BCMA his tag (+ = OD450 <= 1.0).
Molecule B1 registered an OD450 not above 1 od.
Same read-out and setting: the value for B2 was not above 1 od; that for B3 was not above 1 od; that for B4 was not above 1 od.
B6 showed an OD450 not above 1 od.
The molecule B7 had an OD450 not above 1 od.

The next assay shares this target. Kind of assay: ELISA on coated mouse BCMA his tag.
Take B5: the binding result is recorded as “no binding (tested: 2 µg/mL)”.
Take B8: the binding result is listed as “no binding (tested: 2 µg/mL)”.

The next assay has as its target T3, biotin-BAFFR (Acrobiosystems, BAR-H5257). The assay can be described thus: ELISA, antibody coated, biotin-BAFFR in solution.
Take B1: the binding result was “no binding (tested: 4 µg/mL)”.
Consider B2, for which the binding result is recorded as “no binding (tested: 4 µg/mL)”.
Same read-out and setting: as for B3, the entry is “no binding (tested: 4 µg/mL)”; as for B4, “no binding (tested: 4 µg/mL)”.
On the same count and under the same terms, as for B5, the entry is “no binding (tested: 4 µg/mL)”; as for B6, “no binding (tested: 4 µg/mL)”.
On to B7, for which the binding result is “no binding (tested: 4 µg/mL)”.
As for B8, the binding result was “no binding (tested: 4 µg/mL)”.

The values above are taken from patent publication US20240174760A1 (ZHEJIANG NANOMAB TECHNOLOGY CENTER, published 2024).
